Assay results: paper PMC4336329 (PLoS ONE, 2015)
Out of some 310,000 compounds screened, about 2,200 (0.71%) showed an effect of 50% or more. Effects have a minus sign here. The list shows a part of the results.

target: human ether-à-go-go-related gene (hERG) potassium channel (human, UniProt Q12809); experiment: primary screen, population patch clamp on CHO cells stably expressing hERG
Sequence (Q12809 whole entry, looked up): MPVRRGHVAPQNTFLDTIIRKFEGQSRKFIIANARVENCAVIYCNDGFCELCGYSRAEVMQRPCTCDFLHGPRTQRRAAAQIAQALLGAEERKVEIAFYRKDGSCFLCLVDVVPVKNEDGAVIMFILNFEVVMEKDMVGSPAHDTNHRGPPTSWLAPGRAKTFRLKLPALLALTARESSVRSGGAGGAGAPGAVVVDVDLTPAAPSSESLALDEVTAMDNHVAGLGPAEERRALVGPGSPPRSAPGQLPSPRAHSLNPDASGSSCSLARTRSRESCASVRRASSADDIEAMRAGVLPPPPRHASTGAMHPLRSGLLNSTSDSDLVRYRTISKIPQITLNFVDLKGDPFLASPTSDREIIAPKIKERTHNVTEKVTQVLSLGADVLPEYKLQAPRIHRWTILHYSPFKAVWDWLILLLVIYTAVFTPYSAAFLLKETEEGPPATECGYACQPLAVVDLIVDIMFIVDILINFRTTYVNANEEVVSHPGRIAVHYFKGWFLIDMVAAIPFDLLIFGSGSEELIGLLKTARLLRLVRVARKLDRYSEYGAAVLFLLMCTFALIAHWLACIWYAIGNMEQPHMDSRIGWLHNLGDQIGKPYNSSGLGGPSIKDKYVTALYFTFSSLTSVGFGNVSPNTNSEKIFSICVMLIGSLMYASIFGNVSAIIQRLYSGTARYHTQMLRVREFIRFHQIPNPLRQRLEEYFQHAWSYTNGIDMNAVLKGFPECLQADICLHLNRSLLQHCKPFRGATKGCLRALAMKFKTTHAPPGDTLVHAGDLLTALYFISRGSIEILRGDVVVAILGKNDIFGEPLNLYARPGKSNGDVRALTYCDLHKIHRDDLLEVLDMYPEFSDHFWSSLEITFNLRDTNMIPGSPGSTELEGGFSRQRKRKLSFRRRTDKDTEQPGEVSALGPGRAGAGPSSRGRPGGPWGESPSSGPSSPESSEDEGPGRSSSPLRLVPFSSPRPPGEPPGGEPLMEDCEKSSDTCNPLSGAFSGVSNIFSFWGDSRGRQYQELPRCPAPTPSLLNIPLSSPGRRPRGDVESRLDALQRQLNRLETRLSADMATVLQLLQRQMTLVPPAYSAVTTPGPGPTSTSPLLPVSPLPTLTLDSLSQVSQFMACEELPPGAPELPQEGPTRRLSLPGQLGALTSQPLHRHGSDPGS

Row | SMILES | hERG current change (%, negative = inhibition) at 1uM [%]
1 | Cc1noc(C)c1CSc1nc2sc(C)c(C)c2c(=O)n1-c1ccccc1 | 14.9
2 | Cc1ccc(C(=O)O)cc1NC(=O)c1ccc2c(c1)C(=O)N(c1ccc([N+](=O)[O-])cc1)C2=O | 21.9
3 | O=C(OCc1ccccc1)N1CCCC1/C=C/CN1CCOCC1 (centres unmarked) | 12.6
4 | CN(C(=O)/C=C/c1ccco1)c1ccccc1C(=O)O | 10.5
5 | CCOC(=O)C1CCCN(c2nc3ccccc3nc2C(C#N)C(=O)NCc2ccccc2)C1 (centres unmarked) | 11.5
6 | OCC[C@H]1C[C@@H](O)[C@H](O)[C@]2(OCCc3ccccc32)O1 | 7.28
7 | CCN(CC(=O)Nc1ccc(NC(C)=O)cc1)C(=O)c1ccccc1SCc1c(C)noc1C | 9.18
8 | COc1ccc(OC)c(CN2CCN(Cc3cc(=O)oc4cc(O)ccc34)CC2)c1 | -67
9 | CC(O)CNc1nc2c(c(=O)n(Cc3ccc(Cl)cc3)c(=O)n2C)n1C (centres unmarked) | -0.235
10 | CC(=O)/C(=N\Nc1ccc(Cl)cc1Cl)Sc1nnc(-c2ccccc2)n1-c1ccccc1 | 13.8
11 | CC(C)Cc1cc(C(=O)N(C)C2CCCN(Cc3ccccc3F)C2)n(C)n1 (centres unmarked) | 13.1
12 | COc1cc(OC)cc(C(=O)N2CCN(C3CCCCC3)CC2)c1.O=C(O)C(=O)O | -2.01
13 | CC1CCCCN1C(=O)CCC(=O)Nc1nnc(C2CCCCC2)s1 (centres unmarked) | 14.9
14 | O=C(NCC1COc2ccccc2O1)c1ccc(NC(=O)C2CCCO2)cc1 (centres unmarked) | -4.83
15 | O=C(CSC1=Nc2ccccc2C2=NC(CC(=O)NCc3ccco3)C(=O)N12)NCc1ccco1 (centres unmarked) | 9.4
16 | O=C(O)CN=C1CC(c2ccccc2)CC(=O)/C1=C(/O)CCCN1C(=O)c2ccccc2C1=O (centres unmarked) | 2.38
17 | COc1cc(C(=O)Nc2ccc(Cl)c([N+](=O)[O-])c2)cc(OC)c1OC | 15.8
18 | CCOC(=O)C1CCCN(Cc2ccccc2F)C1 (centres unmarked) | -9.07
19 | O=c1[nH]c(/C=C/c2cccc(Br)c2)nc2ccccc12 | 11.8
20 | Fc1cc(Cl)ccc1NC(=S)NCCN1CCOCC1 | 14.2
21 | CCOc1ccc(S(=O)(=O)N(C)c2ccc(OCC(=O)OCc3c(C)noc3C)cc2)cc1 | 11.2
22 | COc1ccc(C(CC(=O)NC(C)c2ccc(-c3ccccc3)cc2)NC(C)=O)cc1 (centres unmarked) | 0.383

Row | SMILES | hERG current change (%, negative = inhibition) at 1uM [%]
23 | CC1(C)Cc2c(c(-c3ccccc3Cl)[nH]c(=O)c2C#N)CO1 | 12.7
24 | O=C1CC(N2CCC(Cc3ccccc3)CC2)C(=O)N1CCc1ccccc1 (centres unmarked) | 20
25 | COc1ccccc1N1CCN(C(=O)c2ccccc2Oc2ccccc2)CC1 | 2.38
26 | C=CCn1c(CNC(=O)c2ccco2)nnc1SCC(=O)N1c2ccccc2Sc2ccccc21 | 15.3
27 | N#C/C(=C/c1ccc(N2CCOCC2)o1)c1ccc(Br)cc1 | 12.4
28 | Cc1nnc2ccc(-c3cccc(NC(=O)c4ccc(Br)o4)c3)nn12 | -52.2
29 | CCC(C)[C@H](NC(=O)c1cn(CC)c2cc3c(cc2c1=O)OCO3)C(=O)NCCCn1ccnc1 (some centres unmarked) | 25.9
30 | NC(=O)c1ccccc1NC(=O)CN1CCCCCC1 | 13.4
31 | FC(F)Oc1ccc(NC(=S)N2CCc3ccccc32)cc1 | 7.88
32 | CCOc1cc(/C=C2/NC(=O)N(CC(=O)Nc3cccc(C)c3)C2=O)ccc1OC | 6.96
33 | CCOC(=O)Cc1c(C)nc2c(C#N)c[nH]n2c1=O | 2.42
34 | Cc1nc(-c2ccc(S(=O)(=O)Nc3ccc(Br)cc3F)cc2)co1 | 10.2
35 | COc1ccc(C(C)=O)cc1CSc1nncn1C | 11.1
36 | COCCNC(=O)c1cc2cc3ccc(OC)cc3nc2o1 | 13.9
37 | CC1CCN(C(=O)CSc2nc3ccccc3s2)CC1 | -0.175
38 | Cl.N[C@@H](CO)c1nnc([C@H](CC(=O)O)NC(=O)C2CCNCC2)o1 | 16.1
39 | C[C@@]12CC(=O)NC1N(C(=O)c1ccccc1)C(c1ccccc1OC(=O)c1ccccc1)C2 (some centres unmarked) | 4.04
40 | CN1C(=O)/C(=C\c2ccccc2F)Sc2ccc(C(=O)NC3CCN(Cc4ccccc4)CC3)cc21 | 3.18
41 | CCOC(=O)c1sc(NC(=O)CSc2n[nH]c(CC)n2)nc1C | 14.2
42 | CCN(CC)CCCOC(=O)c1ccc(OC)cc1O.Cl | -4.18
43 | CC(=O)N1N=C(c2ccccc2OC(=O)/C=C/c2ccccc2)CC1c1ccccc1 (centres unmarked) | 12.2
44 | COc1ccc2cc(Br)ccc2c1CC(=O)N1CCCC1 | 10.4
